# The supplement of paper PMC8728848
# The other results are listed elsewhere or left out.
# B1: HPA (Helix pomatia), Q575S3 (protein)
# chain: MWAHLTGLLLICALSLSAAQRAQTGEIDCGSDSSWPKDPSDNPNRDNTREIVKHVTFSPQFCREPKVILSVTTLDAEHTKNLRYEARLKSVSPSGLSASCYSWHDGTIYRMKLSWLAVED
# Tests used:
# Test in all cases: glycan array binding signal (z-score within array); higher = stronger binding
# Settings in all cases: glycan notation: IUPAC condensed, linker removed
# [1] = target: Neu5Ac(a2-3)Gal(b1-4)GlcNAc(b1-2)Man(a1-3)[GlcNAc(b1-2)Man(b1-4)GlcNAc(b1-2)Man(a1-6)]Man(b1-4)GlcNAc(b1-4)GlcNAc
# How it was run: (§1)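 Columns mapping to the same glycan were averaged after glycan names were converted to IUPAC-condensed notation. The data come from 3228 arrays in the Consortium for Functional Glycomics database, limited to those with an available protein sequence. Binding is reported as a within-array Z-score averaged across arrays of one protein sequence and across linkers.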
# [2] = target: Neu5Ac(a2-3)Gal(b1-4)GlcNAc(b1-2)Man(a1-3)[GlcNAc(b1-4)][Neu5Ac(a2-3)Gal(b1-4)GlcNAc(b1-2)Man(a1-6)]Man(b1-4)GlcNAc(b1-4)GlcNAc
# How it was run: as §1
# [3] = target: Neu5Ac(a2-3)Gal(b1-4)GlcNAc(b1-2)Man(a1-3)[Neu5Ac(a2-3)Gal(b1-4)GlcNAc(b1-2)Man(a1-6)]Man(b1-4)GlcNAc(b1-4)GlcNAc
# How it was run: as §1
# [4] = target: Neu5Ac(a2-3)Gal(b1-4)GlcNAc(b1-2)Man(a1-3)[Neu5Ac(a2-3)Gal(b1-4)GlcNAc(b1-2)Man(a1-6)]Man(b1-4)GlcNAc(b1-4)[Fuc(a1-6)]GlcNAc
# How it was run: as §1
# [5] = target: Neu5Ac(a2-3)Gal(b1-4)GlcNAc(b1-2)Man(a1-3)[Neu5Ac(a2-6)Gal(b1-4)GlcNAc(b1-2)Man(a1-6)]Man(b1-4)GlcNAc(b1-4)GlcNAc
# How it was run: as §1
# [6] = target: Neu5Ac(a2-3)Gal(b1-4)GlcNAc(b1-2)[Neu5Ac(a2-3)Gal(b1-4)GlcNAc(b1-4)]Man(a1-3)[GlcNAc(b1-4)][Neu5Ac(a2-3)Gal(b1-4)GlcNAc(b1-2)[Neu5Ac(a2-3)Gal(b1-4)GlcNAc(b1-6)]Man(a1-6)]Man(b1-4)GlcNAc(b1-4)GlcNAc
# How it was run: as §1
# [7] = target: Neu5Ac(a2-3)Gal(b1-4)GlcNAc(b1-2)[Neu5Ac(a2-3)Gal(b1-4)GlcNAc(b1-4)]Man(a1-3)[GlcNAc(b1-4)][Neu5Ac(a2-3)Gal(b1-4)GlcNAc(b1-4)Man(a1-6)]Man(b1-4)GlcNAc(b1-4)GlcNAc
# How it was run: as §1
# [8] = target: Neu5Ac(a2-3)Gal(b1-4)GlcNAc(b1-2)[Neu5Ac(a2-3)Gal(b1-4)GlcNAc(b1-6)]Man(a1-6)[Neu5Ac(a2-3)Gal(b1-4)GlcNAc(b1-2)Man(a1-3)]Man(b1-4)GlcNAc(b1-4)GlcNAc
# How it was run: as §1
# [9] = target: Neu5Ac(a2-3)Gal(b1-4)GlcNAc(b1-2)[Neu5Ac(a2-3)Gal(b1-4)GlcNAc(b1-6)]Man(a1-6)[Neu5Ac(a2-3)Gal(b1-4)GlcNAc(b1-2)Man(a1-3)][GlcNAc(b1-4)]Man(b1-4)GlcNAc(b1-4)GlcNAc
# How it was run: as §1
# [10] = target: Neu5Ac(a2-3)Gal(b1-4)GlcNAc(b1-3)Gal
# How it was run: as §1
# [11] = target: Neu5Ac(a2-3)Gal(b1-4)GlcNAc(b1-3)Gal(b1-3)GlcNAc
# How it was run: as §1
# [12] = target: Neu5Ac(a2-3)Gal(b1-4)GlcNAc(b1-3)Gal(b1-4)GlcNAc
# How it was run: as §1
# [13] = target: Neu5Ac(a2-3)Gal(b1-4)GlcNAc(b1-3)Gal(b1-4)GlcNAc(b1-2)Man(a1-3)[Neu5Ac(a2-3)Gal(b1-4)GlcNAc(b1-3)Gal(b1-4)GlcNAc(b1-2)Man(a1-6)]Man(b1-4)GlcNAc(b1-4)GlcNAc
# How it was run: as §1
# [14] = target: Neu5Ac(a2-3)Gal(b1-4)GlcNAc(b1-3)Gal(b1-4)GlcNAc(b1-3)Gal(b1-4)GlcNAc
# How it was run: as §1
# [15] = target: Neu5Ac(a2-3)Gal(b1-4)GlcNAc(b1-3)Gal(b1-4)GlcNAc(b1-3)Gal(b1-4)GlcNAc(b1-2)Man(a1-3)[Neu5Ac(a2-3)Gal(b1-4)GlcNAc(b1-3)Gal(b1-4)GlcNAc(b1-3)Gal(b1-4)GlcNAc(b1-2)Man(a1-6)]GalNAc
# How it was run: as §1
# [16] = target: Neu5Ac(a2-3)Gal(b1-4)GlcNAc(b1-3)Gal(b1-4)GlcNAc(b1-3)GalNAc
# How it was run: as §1
# [17] = target: Neu5Ac(a2-3)Gal(b1-4)GlcNAc(b1-3)Gal(b1-4)GlcNAc(b1-3)[Neu5Ac(a2-3)Gal(b1-4)GlcNAc(b1-3)Gal(b1-4)GlcNAc(b1-6)]GalNAc
# How it was run: as §1
# [18] = target: Neu5Ac(a2-3)Gal(b1-4)GlcNAc(b1-3)Gal(b1-4)GlcNAc(b1-6)[Gal(b1-3)]GalNAc
# How it was run: as §1
# [19] = target: Neu5Ac(a2-3)Gal(b1-4)GlcNAc(b1-3)Gal(b1-4)[Fuc(a1-3)]GlcNAc
# How it was run: as §1
# [20] = target: Neu5Ac(a2-3)Gal(b1-4)GlcNAc(b1-3)GalNAc
# How it was run: as §1
# [21] = target: Neu5Ac(a2-3)Gal(b1-4)GlcNAc(b1-3)[Neu5Ac(a2-3)Gal(b1-4)GlcNAc(b1-6)]GalNAc
# How it was run: as §1
# [22] = target: Neu5Ac(a2-3)Gal(b1-4)GlcNAc(b1-6)GalNAc
# How it was run: as §1
# [23] = target: Neu5Ac(a2-3)Gal(b1-4)GlcNAc(b1-6)[Gal(b1-3)]GalNAc
# How it was run: as §1
# [24] = target: Neu5Ac(a2-3)Gal(b1-4)GlcNAc(b1-6)[Neu5Ac(a2-3)Gal(b1-3)]GalNAc
# How it was run: as §1
# [25] = target: Neu5Ac(a2-3)Gal(b1-4)GlcNAc6S
# How it was run: as §1
# [26] = target: Neu5Ac(a2-3)Gal(b1-4)[Fuc(a1-3)]GlcNAc
# How it was run: as §1
# [27] = target: Neu5Ac(a2-3)Gal(b1-4)[Fuc(a1-3)]GlcNAc(b1-2)Man
# How it was run: as §1
# [28] = target: Neu5Ac(a2-3)Gal(b1-4)[Fuc(a1-3)]GlcNAc(b1-3)Gal
# How it was run: as §1
# [29] = target: Neu5Ac(a2-3)Gal(b1-4)[Fuc(a1-3)]GlcNAc(b1-3)Gal(b1-4)GlcNAc
# How it was run: as §1
# [30] = target: Neu5Ac(a2-3)Gal(b1-4)[Fuc(a1-3)]GlcNAc(b1-3)Gal(b1-4)[Fuc(a1-3)]GlcNAc(b1-3)Gal(b1-4)[Fuc(a1-3)]GlcNAc
# How it was run: as §1
# [31] = target: Neu5Ac(a2-3)Gal(b1-4)[Fuc(a1-3)]GlcNAc(b1-3)GalNAc
# How it was run: as §1
# [32] = target: Neu5Ac(a2-3)Gal(b1-4)[Fuc(a1-3)]GlcNAc(b1-6)[Gal(b1-3)]GalNAc
# How it was run: as §1
# [33] = target: Neu5Ac(a2-3)Gal(b1-4)[Fuc(a1-3)]GlcNAc(b1-6)[Neu5Ac(a2-3)Gal(b1-3)]GalNAc
# How it was run: as §1
# [34] = target: Neu5Ac(a2-3)Gal(b1-4)[Fuc(a1-3)]GlcNAc6S
# How it was run: as §1
# [35] = target: Neu5Ac(a2-3)Gal6S(b1-4)GlcNAc
# How it was run: as §1
# [36] = target: Neu5Ac(a2-3)Gal6S(b1-4)[Fuc(a1-3)]GlcNAc
# How it was run: as §1
# Neu5Ac(a2-3)GalNAc = target: Neu5Ac(a2-3)GalNAc
# How it was run: as §1
# [37] = target: Neu5Ac(a2-3)GalNAc(b1-4)GlcNAc
# How it was run: as §1
binder,measurement,setting,value
B1,glycan array binding signal (z-score),[1],-0.26
same,glycan array binding signal (z-score),[2],-0.262
same,glycan array binding signal (z-score),[3],-0.261
same,glycan array binding signal (z-score),[4],-0.253
same,glycan array binding signal (z-score),[5],-0.273
same,glycan array binding signal (z-score),[6],-0.259
same,glycan array binding signal (z-score),[7],-0.261
same,glycan array binding signal (z-score),[8],-0.241
same,glycan array binding signal (z-score),[9],-0.249
same,glycan array binding signal (z-score),[10],-0.26
same,glycan array binding signal (z-score),[11],-0.238
same,glycan array binding signal (z-score),[12],-0.267
same,glycan array binding signal (z-score),[13],-0.146
same,glycan array binding signal (z-score),[14],-0.265
same,glycan array binding signal (z-score),[15],-0.04
same,glycan array binding signal (z-score),[16],-0.266
same,glycan array binding signal (z-score),[17],-0.203
same,glycan array binding signal (z-score),[18],-0.243
same,glycan array binding signal (z-score),[19],-0.259
same,glycan array binding signal (z-score),[20],-0.266
same,glycan array binding signal (z-score),[21],-0.265
same,glycan array binding signal (z-score),[22],-0.252
same,glycan array binding signal (z-score),[23],-0.256
same,glycan array binding signal (z-score),[24],-0.259
same,glycan array binding signal (z-score),[25],-0.259
same,glycan array binding signal (z-score),[26],-0.268
same,glycan array binding signal (z-score),[27],-0.253
same,glycan array binding signal (z-score),[28],-0.27
same,glycan array binding signal (z-score),[29],-0.253
same,glycan array binding signal (z-score),[30],-0.257
same,glycan array binding signal (z-score),[31],-0.211
same,glycan array binding signal (z-score),[32],-0.245
same,glycan array binding signal (z-score),[33],-0.243
same,glycan array binding signal (z-score),[34],-0.26
same,glycan array binding signal (z-score),[35],-0.273
same,glycan array binding signal (z-score),[36],-0.267
same,glycan array binding signal (z-score),Neu5Ac(a2-3)GalNAc,-0.264
same,glycan array binding signal (z-score),[37],-0.268
